A collection of fitness landscapes (doi:10.1016/j.celrep.2020.107928)
The full ranking holds about 81,000 sequences; the median of “one-hybrid fitness for binding NBS DNA” is about -0.1, and the highest 2% start at about 0.36. The list shows a part of the results.

B1: Caulobacter ParB omega fusion; a variant is named by its letters at X, in order, B8GW30 (parent)
chain: MESVVVGEPGMSEGRRGLGRGLSALLGEVDAAPAQAPGEQLGGSREAPIEILQRNPDQPRRTFREEDLEDLSNSIREKGVLQPILVRPSPDTAGEYQIVAGERAWRAAQRAGLKTVPIMVRELDDLAVLEIGIIENVQRADLNVLEEALSYKVLMEKFERTQENIAQTIGKSXSHVANXMRLLXLPDEVQSYLVSGELTAXHARAIAAAADPVALAKQIIEGGLSVRETEALARKAPNLSAGKSKGGRPPRVKDTDTQALESDLSSVLGLDVSIDHRGSTGTLTITYATLEQLDDLCNRLTRGI

Variants of: B1
Assay: one-hybrid fitness for binding NBS DNA (the Noc-binding site; scaled: cognate 1, non-cognate 0); higher = stronger binding
Conditions: with NBS DNA site
Summary of the method: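 Fitness is the rescaled log change in variant-to-wild-type read ratio, measured by Illumina sequencing of plasmids before and after bacterial one-hybrid selection. The scale puts cognate at 1 and non-cognate at 0. Selection of Caulobacter ParB libraries, four specificity codons randomised, took place in E. coli USO with a HIS3 reporter, site 19 bp from the promoter, over 48 hours at 37°C on M9-minus-histidine with 0.1 mM IPTG and 5 mM 3-AT.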

Variant | one-hybrid fitness for binding NBS DNA
QSAH | ≤ 0.2
QYDI | ≤ 0.2
DANT | ≤ 0.2
EQIL | ≤ 0.2
GTET | ≤ 0.2
HMQG | ≤ 0.2
NMNL | ≤ 0.2
AAGV | ≤ 0.2
WTGF | ≤ 0.2
QDFN | ≤ 0.2
VSVM | ≤ 0.2
GDKG | ≤ 0.2
LHGT | ≤ 0.2
TNHM | ≤ 0.2
STFS | ≤ 0.2
HGIV | ≤ 0.2
NLMQ | ≤ 0.2
LWVV | ≤ 0.2
EAQE | ≤ 0.2
PHRV | ≤ 0.2
AVHA | ≤ 0.2
MCMT | ≤ 0.2
WFTF | ≤ 0.2
QYDD | ≤ 0.2

Variant | one-hybrid fitness for binding NBS DNA
TTTI | ≤ 0.2
SRFT | ≤ 0.2
ITHS | ≤ 0.2
QARG | 0.313
FWAR | ≤ 0.2
PQGG | ≤ 0.2
ALLC | ≤ 0.2
DTYL | ≤ 0.2
QDQW | ≤ 0.2
IYHA | ≤ 0.2
RERM | ≤ 0.2
LGHC | ≤ 0.2
RWKD | ≤ 0.2
KETI | ≤ 0.2
KCWK | ≤ 0.2
KVHM | ≤ 0.2
EDPS | ≤ 0.2
RQFQ | ≤ 0.2
TNTL | ≤ 0.2
NINK | ≤ 0.2
VKCS | ≤ 0.2
SRLM | ≤ 0.2
GDYT | ≤ 0.2
RFLW | ≤ 0.2

Variant | one-hybrid fitness for binding NBS DNA
YRKM | ≤ 0.2
DLQL | ≤ 0.2
MLVH | ≤ 0.2
IPFG | ≤ 0.2
MCSG | ≤ 0.2
LKSA | ≤ 0.2
QFQL | ≤ 0.2
RWNI | ≤ 0.2
DFTS | ≤ 0.2
AKRL | ≤ 0.2
TSPD | ≤ 0.2
HAKG | ≤ 0.2
LDDR | ≤ 0.2
DTMK | ≤ 0.2
TETW | ≤ 0.2
CTQR | ≤ 0.2
RIDS | ≤ 0.2
SPNI | ≤ 0.2
FASH | ≤ 0.2
AAYC | ≤ 0.2
MWPW | ≤ 0.2
YTFT | ≤ 0.2
QKWA | ≤ 0.2
HSAK | ≤ 0.2

Variant | one-hybrid fitness for binding NBS DNA
WLCI | ≤ 0.2
HIGF | ≤ 0.2
PICG | ≤ 0.2
DEVA | ≤ 0.2
PIHY | ≤ 0.2
WSQY | ≤ 0.2
FCTI | ≤ 0.2
CIRT | ≤ 0.2
RPQF | ≤ 0.2
APFV | ≤ 0.2
FWTN | ≤ 0.2
ARVY | ≤ 0.2
AEVT | ≤ 0.2
YVTV | ≤ 0.2
VPQM | ≤ 0.2
FAHC | ≤ 0.2
DIYL | ≤ 0.2
RAGY | ≤ 0.2
YEEK | ≤ 0.2
DAPI | ≤ 0.2
ALWF | ≤ 0.2
RSDI | ≤ 0.2
QNHE | ≤ 0.2
HLCY | ≤ 0.2

Variant | one-hybrid fitness for binding NBS DNA
RILE | ≤ 0.2
PVKM | ≤ 0.2
HLCH | ≤ 0.2
YTPE | ≤ 0.2
GETR | ≤ 0.2
PYIT | ≤ 0.2
MCAS | ≤ 0.2
MEPG | ≤ 0.2
QAWY | ≤ 0.2
KYSG | ≤ 0.2
AHTC | ≤ 0.2
RGLY | ≤ 0.2
HVSN | ≤ 0.2
DAQT | ≤ 0.2
GRQS | ≤ 0.2
TQAC | ≤ 0.2
STNS | ≤ 0.2
RGPL | ≤ 0.2
HKNF | ≤ 0.2
PGVD | ≤ 0.2
RLTW | ≤ 0.2
LCIY | ≤ 0.2
LMRP | ≤ 0.2
PWTT | ≤ 0.2

Variant | one-hybrid fitness for binding NBS DNA
YVQS | ≤ 0.2
NDST | ≤ 0.2
GDNT | ≤ 0.2
RFKF | ≤ 0.2
RHFC | ≤ 0.2
ETRF | ≤ 0.2
SLEG | ≤ 0.2
ATGQ | ≤ 0.2
VEYG | ≤ 0.2
NGTA | ≤ 0.2
RMRY | 0.353
ERHT | ≤ 0.2
HTKS | ≤ 0.2
KLPR | ≤ 0.2
IMSY | ≤ 0.2
GSVL | ≤ 0.2
KLYF | ≤ 0.2
SIQT | ≤ 0.2
RDLT | ≤ 0.2
RQFD | ≤ 0.2
NDYC | ≤ 0.2
LLCR | ≤ 0.2
EYKC | ≤ 0.2
VPVS | ≤ 0.2

Variant | one-hybrid fitness for binding NBS DNA
THAW | ≤ 0.2
SIRA | ≤ 0.2
HNKR | ≤ 0.2
MVCV | ≤ 0.2
SPGI | ≤ 0.2
DWAC | ≤ 0.2
HRFN | ≤ 0.2
SPQQ | ≤ 0.2
SPTV | ≤ 0.2
GVSD | ≤ 0.2
IAKL | ≤ 0.2
SDWV | ≤ 0.2
RNMT | ≤ 0.2
SRSC | ≤ 0.2
MGRL | ≤ 0.2
GYEI | ≤ 0.2
TVGT | ≤ 0.2
MEVS | ≤ 0.2
GHPM | ≤ 0.2
SCRR | 0.205
PNCM | ≤ 0.2
TFNV | ≤ 0.2
IHPS | ≤ 0.2
HYKW | ≤ 0.2

Variant | one-hybrid fitness for binding NBS DNA
YDTT | ≤ 0.2
ANWS | ≤ 0.2
RICK | ≤ 0.2
TMNT | ≤ 0.2
QNFC | ≤ 0.2
NINQ | ≤ 0.2
EMHA | ≤ 0.2
AQNG | ≤ 0.2
GVFR | ≤ 0.2
SNEQ | ≤ 0.2
NPMT | ≤ 0.2
KLYY | ≤ 0.2
IMKY | ≤ 0.2
NPMS | ≤ 0.2
KFEG | ≤ 0.2
AQLK | ≤ 0.2
AVLL | ≤ 0.2
KTRL | ≤ 0.2
VGTF | ≤ 0.2
QETE | ≤ 0.2
RPTT | ≤ 0.2
TPGC | ≤ 0.2
HAMA | ≤ 0.2
NDIP | ≤ 0.2

Variant | one-hybrid fitness for binding NBS DNA
GKSH | ≤ 0.2
RPDH | ≤ 0.2
RFNC | ≤ 0.2
RGFA | ≤ 0.2
YDGG | ≤ 0.2
TLYW | ≤ 0.2
DPKV | ≤ 0.2
YKML | ≤ 0.2
AYPP | ≤ 0.2
QHTE | ≤ 0.2
ALQY | ≤ 0.2
GHKI | ≤ 0.2
CCLS | ≤ 0.2
ALIR | ≤ 0.2
HYFR | ≤ 0.2
AAGE | ≤ 0.2
DAPN | ≤ 0.2
VAPV | ≤ 0.2
FSFG | ≤ 0.2
RHYF | ≤ 0.2
QLKW | 0.234
WMDV | ≤ 0.2
RKME | ≤ 0.2
MGLN | ≤ 0.2

Variant | one-hybrid fitness for binding NBS DNA
THNQ | ≤ 0.2
IYFS | ≤ 0.2
SCCR | ≤ 0.2
TLNN | ≤ 0.2
QGKT | ≤ 0.2
HQDC | ≤ 0.2
LMHE | ≤ 0.2
SHLS | ≤ 0.2
IPFR | ≤ 0.2
MVFC | ≤ 0.2
WVTC | ≤ 0.2
ACNY | ≤ 0.2
MLVQ | ≤ 0.2
QSKL | 0.203
RMCN | ≤ 0.2
KYPS | ≤ 0.2
CIYG | ≤ 0.2
KNSS | ≤ 0.2
PKAQ | ≤ 0.2
TRHH | ≤ 0.2
DTPL | ≤ 0.2
ASII | ≤ 0.2
PTPT | ≤ 0.2
WCIS | ≤ 0.2

Variant | one-hybrid fitness for binding NBS DNA
CTVG | ≤ 0.2
AVGF | ≤ 0.2
RSAA | ≤ 0.2
FHKR | ≤ 0.2
LSDD | ≤ 0.2
EGPC | ≤ 0.2
RSRY | 0.272
CIRL | ≤ 0.2
LMMV | ≤ 0.2
KRKC | 0.254
TSKP | ≤ 0.2
GPHN | ≤ 0.2
DFLC | ≤ 0.2
RIQD | ≤ 0.2
WRRN | ≤ 0.2
SWMS | 0.22
EPPS | ≤ 0.2
PRPG | ≤ 0.2
SMTS | ≤ 0.2
YNRN | ≤ 0.2
QQNN | 0.231
GKTN | ≤ 0.2
LHCS | ≤ 0.2
GFPW | ≤ 0.2

Variant | one-hybrid fitness for binding NBS DNA
NASA | ≤ 0.2
QHAG | ≤ 0.2
WLDV | ≤ 0.2
KHLR | ≤ 0.2
PQMV | ≤ 0.2
QYRY | 0.486
QLTV | ≤ 0.2
YQRE | ≤ 0.2
ASVP | ≤ 0.2
HKAL | ≤ 0.2
MGVD | ≤ 0.2
QLIP | ≤ 0.2
SKTC | ≤ 0.2
SLCA | ≤ 0.2
ITND | ≤ 0.2
TAEE | ≤ 0.2
NCKF | ≤ 0.2
QPYE | ≤ 0.2
SAKH | ≤ 0.2
DNRR | ≤ 0.2
WSIS | ≤ 0.2
SCTF | ≤ 0.2
AFTF | ≤ 0.2
HSTD | ≤ 0.2

Variant | one-hybrid fitness for binding NBS DNA
EVLK | ≤ 0.2
SKDS | ≤ 0.2
VDCF | ≤ 0.2
RAYT | 0.353
MMLS | ≤ 0.2
YNPT | ≤ 0.2
QSGC | ≤ 0.2
RYFG | ≤ 0.2
VRKR | 0.62
LHDL | ≤ 0.2
DPIM | ≤ 0.2
LQSW | ≤ 0.2
VYLF | ≤ 0.2
THNR | ≤ 0.2
PLRR | ≤ 0.2
SNTD | ≤ 0.2
PSMS | ≤ 0.2
YLGS | ≤ 0.2
